This passage reports binding signal results from PMC12136788.

The list shows a part of the results.

First the molecules themselves.
B1: chr9:114598126:114598323:+|3pUTR|ENSG00000136888|msi1|FALSE|unique (ssRNA)
RNA: GGGAGUUCUACAGUCCGACGAUCUCUUUGUAACCUGUGUGAAGCAGCAGCCAGCCUUAAAGUAGUCCAUUCUUGCUAAUGGUUAGAACAGUGAAUACUAGUGGAAUUGUUUGGGCUGCUUUUAGUUUCUCUUAAUCAAAAUUACAACAGAGGAUUGAGCAUCA
B2: chr17:58089516:58089557:+|3pUTR|ENSG00000264364|msi1_unk|total|mutant (ssRNA)
RNA: GGGAGUUCUACAGUCCGACGAUCGAAGGCUGCUUUAUGUUUAUUUUUCAAGACUUUAAAAAUAUUUUUUGGUUGUAUUGCACCCGGAAAUCUCUCCCACCUCUCCCUUUUCUCUUUCUUUCCCUAUACAAAAUAAAAGGCCCACAACAGAGGAUUGAGCAUCA
B3: chr8:30843048:30843149:-|CDS|ENSG00000133863|unk|total|mutant (ssRNA)
RNA: GGGAGUUCUACAGUCCGACGAUCGGAUACUAUAAUUGCUUCCAGAAAGUCAGAUCAUCCAAUAAACGAAGCAACAAUCCGCACCGAAAAUUCUAAAUUUAACAGUAAUUUGCUUGCACACCCAGAUAUUUGUUGUAUCCGUGACAACAGAGGAUUGAGCAUCA
B4: chr17:7656804:7656905:+|3pUTR|ENSG00000129244|unk|FALSE|unique (ssRNA)
RNA: GGGAGUUCUACAGUCCGACGAUCGCAUGUGCCACCAUGCCCGGCUAAUUUCUUUCUUUCUUUUUUUUUUUUUUUGCAUUUUUUAGUAGAGAUGGGGGUUUCUCCUUGUUGGUCAGGCUGGUCUCGAACUCCCGACCUCAGGUGCAACAGAGGAUUGAGCAUCA
B5: ENSG00000162599:stop:overlap|stop_codon|ENSG00000162599|stop_codon|NA|stop_codon (ssRNA)
RNA: GGGAGUUCUACAGUCCGACGAUCUCACACAGCAUCACCGACCUGUCAUUACAGGACCCAGAGCUUUUCUUUGGAGCCUCCCAUAGAAGAGAGACUGGGAUUUAAAGGCUGAUGCCAGAAAGCAAAAGCUAACGUGAAAAGAAUCAACAGAGGAUUGAGCAUCA
B6: ENSG00000076706:stop:overlap|stop_codon|ENSG00000076706|stop_codon|NA|stop_codon (ssRNA)
RNA: GGGAGUUCUACAGUCCGACGAUCGCAGCGGUGACAAGAGGGCUCCGGGAGACCAGGGAGAGAAAUACAUCGAUCUGAGGCAUUAGCCCCGAAUCACUUCAGCUCCCUUCCCUGCCUGGACCAUUCCCAGCUCCCUGCUCACUCCAACAGAGGAUUGAGCAUCA
B7: chr6:56056589:56057844:-|three_prime_utr|ENSG00000124749|control|control|control (ssRNA)
RNA: GGGAGUUCUACAGUCCGACGAUCAAACCUGGAAUCCAAGGGCAACCAGGCCCCCCAGGCAUCUGCGACCCAUCACUAUGUUUUAGUGUAAUUGCCAGAAGAGAUCCGUUCAGAAAAGGACCAAACUAUUAGUGUCUGAUGCCUCAACAGAGGAUUGAGCAUCA
B8: chrX:52926401:52927765:-|three_prime_utr|ENSG00000268350|control|control|control (ssRNA)
RNA: GGGAGUUCUACAGUCCGACGAUCUUGUUUGUAAUCAUAAAUUUGUGAGCCUAAGCUACUGCAAAGGAAACUGGCCAGGUUAUUAGCCCAAAUGAAGGCAGUGGGUAACUUGGGUUUAGCCCCAACACCAGCCGCACCUAGGAACAACAGAGGAUUGAGCAUCA
B9: chr5:10264816:10264917:+|3pUTR|ENSG00000150753|msi1_unk|FALSE|overlapping (ssRNA)
RNA: GGGAGUUCUACAGUCCGACGAUCAAUGGAUGUCUCGUGAUGCAUCUACAGUUAUUUAUUGUUACAUCCUUUUCCAGACACUGUAGAUGCUAUAAUAAAAAUAGCUGUUUGGUAACCAUAGUUUCACUUGUUCAAAGCUGUGUACAACAGAGGAUUGAGCAUCA
B10: chr16:55506527:55506628:+|3pUTR|ENSG00000087245|msi1|FALSE|unique (ssRNA)
RNA: GGGAGUUCUACAGUCCGACGAUCUAUCAGUUUUAAUGCUACUACUAACAAUGAACAGUAACAAUAAUAUCCCCCUCAAUUAAUAGAGUGCUUUCUAUGUGCAAGGCACUUUUCACGUGUCACCUAUUUUAACCUUUCCAACCACAACAGAGGAUUGAGCAUCA
B11: chr7:101206146:101206247:-|3pUTR|ENSG00000106397|msi1|FALSE|unique (ssRNA)
RNA: GGGAGUUCUACAGUCCGACGAUCCUUUGUCGACCCCUGACACUCAACCACUCUGCCAAACCUGCCCUGCCAUUGUGCCUUUUUAGGGGGCCUGGCCCCCGUCCUGGGAGUUGGGGGAUGGGUCUCUCUGUCUCCCCACUUCCUCAACAGAGGAUUGAGCAUCA
B12: chr14:21351797:21351898:-|3pUTR|ENSG00000092201|msi1|FALSE|unique (ssRNA)
RNA: GGGAGUUCUACAGUCCGACGAUCGAGGAAGGCUCAAAGGAGUCAACAUUUAUAUCUGGAAGGGACAAGUCAUGCCUUGGGCCUAGAAUACCCUGAUGAGAAAAGAGAAGAGGAAGGGAGGCCAUAUCUACAACACAGCCUCUCCAACAGAGGAUUGAGCAUCA
B13: chr17:57972098:57972209:-|3pUTR|ENSG00000136451|unk|FALSE|bound_elsewhere (ssRNA)
RNA: GGGAGUUCUACAGUCCGACGAUCCUAGAAUGUGGUUGUCAGAACCCUGAAAGUAUUAGUUCUAAAAAAAAAAAGAUAUAUACUAGAAGUAAUUGUUUUAUCAAUUCAUUGUAUAAUAAACAGGAGUGAGACUUCAUUGUAUGACAACAGAGGAUUGAGCAUCA
B14: chrX:101163201:101163302:+|3pUTR|ENSG00000102384|unk|FALSE|unique (ssRNA)
RNA: GGGAGUUCUACAGUCCGACGAUCUCAUCAUCAGGCUCUGCGUUCUACCAAAUUGUAUGUAAAAAGACACAUCUGUUUUGUGGUAGGAUUUUUUCACAUUUUUGGGUACUAUGAGCUGCAUUGAUGGAAGACAGCAGGCAAUAUCAACAGAGGAUUGAGCAUCA

In the experiment the target is MSI1 full-length (mouse, UniProt Q61474 1-362). Description: nsRBNS (natural sequence RNA bind-n-seq); RBNS binding buffer (assumed for nsRBNS): 25 mM Tris pH 7.5, 150 mM KCl, 3 mM MgCl2, 0.01% Triton X-100, 500 ug/ml BSA, 20 U/ml SUPERase-In, 4 C; UNK is unkempt and MSI1 is Musashi-1; names of the RNAs are library labels; protein concentration not given here; high values mean tight binding.
Sequence of UniProt Q61474 (Q61474 whole entry): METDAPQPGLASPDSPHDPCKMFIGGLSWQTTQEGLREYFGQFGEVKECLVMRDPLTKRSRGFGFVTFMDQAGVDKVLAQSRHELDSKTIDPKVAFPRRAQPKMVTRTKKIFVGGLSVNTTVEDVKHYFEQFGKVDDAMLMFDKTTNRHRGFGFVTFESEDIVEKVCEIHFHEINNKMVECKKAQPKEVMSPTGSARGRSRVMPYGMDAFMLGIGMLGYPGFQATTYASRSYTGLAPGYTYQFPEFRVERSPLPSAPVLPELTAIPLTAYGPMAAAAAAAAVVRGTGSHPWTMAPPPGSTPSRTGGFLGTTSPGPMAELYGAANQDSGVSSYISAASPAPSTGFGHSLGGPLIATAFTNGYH
Molecule B1 had a binding signal of 2.41 enrichment R.

Take B2: the binding signal came to 2.22 enrichment R.

Molecule B3 displayed a binding signal of 1.28 enrichment R.

Regarding B4, the binding signal worked out at 2.6 enrichment R.

Molecule B5 returned a binding signal of 8.72 enrichment R.

B6 came in with a binding signal of 0.684 enrichment R.

For the molecule B7, the binding signal amounted to 1.07 enrichment R.

The molecule B8 gave a binding signal of 0.414 enrichment R.

Molecule B9 registered a binding signal of 5.3 enrichment R.

As for B10, the binding signal was found to be 3.98 enrichment R.

Turning to B11, the binding signal came to 0.524 enrichment R.

As for B12, the binding signal was 0.748 enrichment R.

B13 yielded a binding signal of 29.3 enrichment R.

With B14, the binding signal came out at 0.267 enrichment R.
